Data as given in PMC12136788.
Some of the results follow.

T1: UNK ZnF1-3 (human, UniProt Q9C0B0 31-174)
T1 sequence: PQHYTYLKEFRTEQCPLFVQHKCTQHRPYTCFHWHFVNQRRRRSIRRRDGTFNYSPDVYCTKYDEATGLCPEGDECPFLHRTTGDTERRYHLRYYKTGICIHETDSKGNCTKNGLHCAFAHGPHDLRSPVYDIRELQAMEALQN

B1: chr5:31825596:31825597:-_ENSMUSG00000053134_ENSMUST00000065388|mus_hu|FALSE|FALSE (ssRNA)
RNA: GGGAGUUCUACAGUCCGACGAUCAGCCAGUUAUUUAUGUAAAAAGUAGGCUAUUUGUGACCACUUAGAAAAAUGUCAGUGUCAGCAAAACUGUAGGACCAAAGGUGUUCUCCCUUUGCAGAUUCAUUGUCCAUAUGUCUCUUCCAACAGAGGAUUGAGCAUCA
B2: chrX:15845472:15845473:-_ENSG00000182287_ENST00000329235|hu_mus|FALSE|FALSE (ssRNA)
RNA: GGGAGUUCUACAGUCCGACGAUCCCACAAGAAGUCAUCAGCAAGGGAGGACAGUUAUGUCAGUCCAAUUUCUUCAAGAACACUACGUGGGGUUUCAGCUUCUUUUGCAUCCUCCUGCAGGAGAUCGGCCUGCUCAAUUGCUUUCAACAGAGGAUUGAGCAUCA
B3: chr7:7679991:7679992:-_ENSG00000106399_ENST00000396682|hu_hu|hu_hu_hu_mus_False|18_28 (ssRNA)
RNA: GGGAGUUCUACAGUCCGACGAUCUGGGAUGAAUCUUUUCCAGCUUCCCCACGAAGCACACGGGCCGGUCGAUAUACUGUGGUAACAUGCUGGCGUUGACGCGCGCUCUGGGCAAGUCCAUCAUGUCCUCCAUGAUUCUGCCGCCAACAGAGGAUUGAGCAUCA
B4: chr12:52885226:52885227:-_ENSMUSG00000035247_ENSMUST00000042052|mus_hu|FALSE|FALSE (ssRNA)
RNA: GGGAGUUCUACAGUCCGACGAUCUUUAAAAACAUUUAUUCUUUCUACCAGUUGACUACAAUCUUGUUUCAUAUCCAAAUCCAUGCUAUUGUUUAACACAGUAAGAAGUGCUUGUACCAAGCCACUGCUACACAUUUCAUAUGGCAACAGAGGAUUGAGCAUCA
B5: 73094735_73096627_1794_CDS_ENSMUSG00000022607_ENSMUST00000110036|mouse|control|control (ssRNA)
RNA: GGGAGUUCUACAGUCCGACGAUCUCUUACUUGCAAAAAUGACCUCAGCUCUCCAAGUGUGCACAACUCCAUGAUUAUCCAGACAGGGUUCUCUGUAAUGACUCCAAUCAGCUUCACGAUGUGAGGAUGGUCAAACUGACGCAUCAACAGAGGAUUGAGCAUCA
B6: chr16:75691255:75691256:+_ENSG00000166848_ENST00000300086|hu_mus|FALSE|FALSE (ssRNA)
RNA: GGGAGUUCUACAGUCCGACGAUCAAAGUUUUAUUUAUUUUCAAUGACAAAAACAACACAGCAAAGUGGACCAAGGCCACUCAAUUUUAAGUCUAGCAUAAUUUUCAGCAGAAAACGUAUGUUCCACAUAAUUUUAAAAUUGACCAACAGAGGAUUGAGCAUCA
B7: chr3:149684035:149684036:-_ENSG00000070087_ENST00000452853|hu_mus|motif|central (ssRNA)
RNA: GGGAGUUCUACAGUCCGACGAUCAGUUCAUAUGUUUUCUUGUUAAUUGUGCCUGCGUGGACACCUUCCUUUCCCAUGACGGUAACCAAUGCUGGAGUACACAAGGAAACAAAACAAAAAUGAACACAAUUAUUUAAGGGGAAGCAACAGAGGAUUGAGCAUCA
B8: chr11:93905761:93905762:+_ENSMUSG00000020859_ENSMUST00000103168|mus_hu|FALSE|FALSE (ssRNA)
RNA: GGGAGUUCUACAGUCCGACGAUCAGCUGGCACACCGGUAGAAAUAGAAAAGUGCACAAGCAGCAAAACAGAGAGAGAUACUAAGAUAGCAGAAUUAAUGACCACCGCCCCGCCAACAAAGCCAAACACAAACAGCAGCAUGCACAACAGAGGAUUGAGCAUCA
B9: 46685465_46685585_100_5pUTR_ENSMUSG00000033319_ENSMUST00000036226|mouse|control|control (ssRNA)
RNA: GGGAGUUCUACAGUCCGACGAUCUCCCUCCCGGGCCGUUCGCGUUGCAGCAGCUGCCGUGGCGGAUGGUGUAAUGGGCUGCAGGCCCGGGGGCCGGACGAGCCAGUUCGCUCCUUCACAUUACUGACGCCGCAGCCGCGCCAUCAACAGAGGAUUGAGCAUCA
B10: chr4:115894766:115894767:+_ENSMUSG00000028698_ENSMUST00000030464|mus_hu|mus_mus_mus_hu_True|38_88 (ssRNA)
RNA: GGGAGUUCUACAGUCCGACGAUCUUCCACACGGAAAUGUACUUCGGGUUUCCAACGGGCCAGUACCAGUCCGGCCAAACUACCCGAACAGGGUCCUGUCCUCCUCUCCUACAGAACACAACAAAAUGCCCCCGAACUUUCAAGCAACAGAGGAUUGAGCAUCA
B11: chr14:53113150:53113151:-_ENSG00000197930_ENST00000395686|hu_mus|motif|central (ssRNA)
RNA: GGGAGUUCUACAGUCCGACGAUCGCCCCACAGGCGGCACUUGAAGCAGCCAACACAGUCCAUGAUUCUUGAAAUGUUCCGGAAGUGUAGCCGGAAGUCCUCCUUUAGUUUAUGUGCUUCGUUUUUAUCCCCAGCAAAAAAAGACAACAGAGGAUUGAGCAUCA
B12: chr2:65473824:65473825:+_ENSG00000138071_ENST00000260641|hu_mus|motif|central (ssRNA)
RNA: GGGAGUUCUACAGUCCGACGAUCGUUUUUGGUUGGAUUCAUGGGAGGUUCUGUAAGUAAAAUCUUGCAGUUUCUGGUGUCGGUAUUGAGUUUCUCUGGUCCAAAUGUGUAGUCCCACAGGUGCUUCAUGUCAUCCCAAUUCCGCAACAGAGGAUUGAGCAUCA
B13: 139369925_139370045_2156_CDS_ENSG00000148396_ENST00000313050|human|control|control (ssRNA)
RNA: GGGAGUUCUACAGUCCGACGAUCCCCCUGGGUCCUGGCUGAAGGCCUCUUCUCGGGUGCUGGAUACACAGUAUCCAAGGGCGGUGCCCCUGCGUGCGGAAGCAUGUGCACAGCUUCCGUGGUGGAGUUAAGAGGCAGGGGACACAACAGAGGAUUGAGCAUCA
B14: 32628644_32630241_2191_3pUTR_ENSMUSG00000022797_ENSMUST00000023486|mouse|control|control (ssRNA)
RNA: GGGAGUUCUACAGUCCGACGAUCAAGAUAUGUCGGAAAGGAGACUCUCUUGGAGAUACAUAGGGCGACAGGAAGUGAUACUCCACUUUCAUAAUACGAUCAUUGAUUUCCCUCAUGACAAAUCUGUUUGUUUUCUCAGCAUUACAACAGAGGAUUGAGCAUCA

What follows are binders tested against T1, UNK ZnF1-3 (assay: nsRBNS (natural sequence RNA bind-n-seq); RBNS binding buffer (assumed for nsRBNS): 25 mM Tris pH 7.5, 150 mM KCl, 3 mM MgCl2, 0.01% Triton X-100, 500 ug/ml BSA, 20 U/ml SUPERase-In, 4 C; UNK is unkempt and MSI1 is Musashi-1; names of the RNAs are library labels; protein concentration not given here; high values mean tight binding).
Work on B1 yielded a binding signal of 1.98 enrichment R.
B2 gave a binding signal of 1.04 enrichment R.
With B3 the binding signal was 0.687 enrichment R.
B4 was tested, and the binding signal was 1.03 enrichment R.
In the case of B5, the binding signal is reported as 1.14 enrichment R.
Work on B6 yielded a binding signal of 1.58 enrichment R.
For B7, the binding signal was 1.04 enrichment R.
B8 was tested, and the binding signal was 2.74 enrichment R.
With B9 the binding signal was 0.519 enrichment R.
In the case of B10, the binding signal is reported as 0.994 enrichment R.
With B11 the binding signal was 1.52 enrichment R.
In the case of B12, the binding signal is reported as 0.7 enrichment R.
Work on B13 yielded a binding signal of 0.384 enrichment R.
Binder B14 has a binding signal of 1.1 enrichment R.
